The full ranking holds about 110,000 compounds; the median of “z-score” is about -0.1, and the highest 2% start at about 2. Some of the results follow.
Target: Metabotropic glutamate receptor 8 (Rattus norvegicus) (UniProt P70579)
Test: rat mGluR8 modulators via GIRK flux, primary screen, cell-based, thallium flux, HTS (AID 488969)
Conditions: HEK293 rat mGluR8, GIRK (G protein-gated inwardly rectifying potassium channel) thallium flux, FluoZin2; at 10 µM; stronger effect = higher value; submaximal glutamate (EC20) added with thallium

UniProt P70579, sequence (P70579 whole entry, looked up): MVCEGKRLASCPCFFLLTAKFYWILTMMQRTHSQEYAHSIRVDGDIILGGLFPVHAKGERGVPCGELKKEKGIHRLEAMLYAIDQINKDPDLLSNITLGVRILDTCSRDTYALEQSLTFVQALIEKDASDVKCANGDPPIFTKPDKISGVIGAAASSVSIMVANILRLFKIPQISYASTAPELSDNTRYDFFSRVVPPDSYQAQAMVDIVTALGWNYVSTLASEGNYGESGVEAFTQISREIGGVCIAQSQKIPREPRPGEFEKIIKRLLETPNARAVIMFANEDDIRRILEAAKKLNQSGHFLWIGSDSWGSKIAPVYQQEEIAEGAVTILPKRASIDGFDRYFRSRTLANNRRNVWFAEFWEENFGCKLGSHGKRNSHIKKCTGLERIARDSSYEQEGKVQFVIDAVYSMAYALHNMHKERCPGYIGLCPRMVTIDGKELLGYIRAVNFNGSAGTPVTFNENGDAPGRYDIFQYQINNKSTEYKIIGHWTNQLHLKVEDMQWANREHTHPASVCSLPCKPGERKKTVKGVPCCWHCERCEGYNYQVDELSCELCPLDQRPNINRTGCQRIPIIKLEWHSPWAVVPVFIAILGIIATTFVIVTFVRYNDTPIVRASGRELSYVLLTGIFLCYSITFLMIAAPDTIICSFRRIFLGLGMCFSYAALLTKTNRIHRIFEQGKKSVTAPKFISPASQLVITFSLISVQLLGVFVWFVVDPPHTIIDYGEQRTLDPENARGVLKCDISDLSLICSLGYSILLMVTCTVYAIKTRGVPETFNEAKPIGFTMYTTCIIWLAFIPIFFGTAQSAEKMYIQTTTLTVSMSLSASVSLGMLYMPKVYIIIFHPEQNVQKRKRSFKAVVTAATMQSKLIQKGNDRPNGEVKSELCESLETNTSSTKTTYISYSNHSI

SMILES	z-score
CC(C)n1nnnc1SCC(=O)NCc1ccco1	1.11
CC1=NN(c2ccccc2)C(=O)/C1=C\c1c(C)[nH]n(-c2ccccc2)c1=O	1.48
Cc1nc2ccccn2c1-c1csc(NCc2ccco2)n1	-1.95
COc1ccc(CCNC(=O)c2c(-c3ccccc3Cl)noc2C)cc1	0.099
O=C(CNC(=O)c1ccc(Oc2ccccc2)cc1)OC1CCCCC1=O (stereo unspecified)	-0.12
Cc1ccc(NC(=O)c2cc(Cl)ccc2[N+](=O)[O-])cc1C	0.0161
CCc1ccc(NC(=O)N(CCN2CCOCC2)Cc2ccc3c(c2)CCCN3CC)cc1	0.069
CC(=O)Nc1ccc(C(=O)OCC(=O)c2ccc(C)c([N+](=O)[O-])c2)cc1	-0.0847
CC(C)N1C(=O)C2C(c3ccccc3O)NC(C)(C(=O)O)C2C1=O (stereo unspecified)	0.39
Cc1nn(-c2ccccc2)c(C)c1C(=O)OCC(=O)N1c2ccccc2NC(=O)C1(C)C	-0.377
CCCNC(=O)CN(C)S(=O)(=O)c1c(C)cc(C)cc1C	0.408
O=C(CSc1nnc(-c2ccc(S(=O)(=O)N3CCCC3)cc2)o1)N1CCCC1	-0.0514
C=CCn1ncc(OC)c(Cl)c1=O	-0.049
CCOC(=O)C1=C(C)N(CC)C(=S)NC1c1ccc(Cl)cc1 (stereo unspecified)	-0.658
CNS(=O)(=O)c1cccc(C(=O)OC2CCCCC2=O)c1 (stereo unspecified)	2.06
Cc1cccc(Nc2nnc(SCC3CCCCO3)s2)c1C (stereo unspecified)	-0.0272
O=C1NC(=Nc2ccccc2)S/C1=C\C=C\c1ccco1	0.075
C(=N\NC1=Nc2cccc3cccc1c23)/c1ccccc1	-0.361
CC(=O)c1cccc(N(CC(=O)Nc2cccnc2)S(C)(=O)=O)c1	0.179
CCOC(=O)c1c(NC(=O)CNCC(O)CO)sc(C)c1C (stereo unspecified)	-1.24
Cc1cc(S(=O)(=O)Nc2cccc(O)c2)c(C)s1	-0.746
O=C(O)c1cc2nc(-c3ccc(F)cc3)cc(C(F)(F)F)n2n1	-0.369
COc1ccc(OC)c(-c2cc(C(=O)Nc3c(C)nn(Cc4ccccc4C)c3C)no2)c1	-1.07
C/C(=N\NC(=O)Nc1ccccc1)c1ccccc1	-0.157

SMILES	z-score
Cc1nc2c(c(-c3ccccc3)c1C#N)C(=O)c1ccccc1-2	-0.23
COc1ccc(NC(=O)CN(C)C2CCCCC2)c([N+](=O)[O-])c1	-0.45
CCOC(=O)Cn1nc(C)n(-c2ccc(C)cc2)c1=O	-0.0402
Cc1ccc(C)c(NC(=S)N2CCC(c3nc4ccccc4s3)CC2)c1	0.656
Cc1cc[n+](CC(=O)Nc2cc(C(F)(F)F)ccc2Cl)cc1	-0.139
Cc1c(C#N)c2ccccc2n1CCOc1ccccc1F	-1.31
COC(=O)c1ccc(-n2nnnc2SCc2ccccc2OC)cc1	0.264
O=C(Cc1ccc(Br)cc1)NCCc1ccc(Cl)cc1Cl	0.0716
CCOC(=O)c1nn(-c2cccc(OC)c2)c(-c2ccccc2)c1C(=O)c1ccccc1	-0.23
COc1cc2c(cc1OC)C1(Nc3c-2c(C)nn3-c2ccccc2)C(=O)Nc2ccccc21 (stereo unspecified)	-0.435
CCN(CC)S(=O)(=O)c1cccc(NC(=O)C2SC(=Nc3ccc(C)cc3C)C(C(=O)NCC3CCCO3)=C2N)c1 (stereo unspecified)	0.215
CS(=O)(=O)N(CCc1ccccc1)CC(=O)N1CCc2ccccc2C1	0.339
Cc1ccc([N+](=O)[O-])cc1NC(=O)C1CCN(S(C)(=O)=O)CC1	0.00186
CCc1nnc2sc(-c3ccc(NC(=O)c4ccc5c(c4)OCCO5)cc3)nn12	-0.64
CC1CCCCN1C(=S)Nc1ccc(OC(F)F)cc1 (stereo unspecified)	1.36
Cc1ccc(NC(=O)CCc2nnc(SCC(=O)Nc3ccccc3C)n2C)cc1Cl	-0.13
CC1CCCCN1Cc1cnc(Cl)s1 (stereo unspecified)	0.0386
Cc1nc(NC(=O)c2ccccc2)sc1-c1csc(Nc2ccc(Cl)cc2Cl)n1	-0.0303
N/C(=N\OC(=O)CSc1ccccc1)c1ccc([N+](=O)[O-])cc1	-0.126
COc1cc(C(=O)Nc2nnc(CC(=O)N3CCOCC3)s2)cc(OC)c1OC	-0.13
Cc1ccc(NC(=O)c2ccc(S(=O)(=O)N3CCCCC3)cc2)cc1	-0.0782
CC(/C=N/NC(=O)c1cccc([N+](=O)[O-])c1)=C\c1ccccc1	-0.192
O=C(CCSc1nnc2ccc3ccccc3n12)Nc1ccc(F)cc1	-0.726
CC(C)n1cnc2cc(NCc3ccccn3)ccc21	-0.0842

SMILES	z-score
CCN(CC)c1ccc(/C=N/NC(=S)NCc2ccc(OC)cc2)cc1	0.0355
COc1cc(NC(=S)NCc2cccnc2)cc(OC)c1	0.297
COc1cc(C(=O)NCc2nnc(SCC(=O)N3CCc4ccccc43)o2)cc(OC)c1OC	-0.104
O=C(CN1C(=O)c2ccccc2S1(=O)=O)NCCSC1CCCCC1	-0.364
Cc1cccc(NC(=O)C2CCCC2)c1	0.277
CCCC(=O)Nc1ccc(Cl)c(NC(=O)c2cccnc2)c1	-0.639
N=c1oc2ccc3ccccc3c2cc1-c1nnc2n1CCCCC2	-0.238
CO/N=C/C(C#N)c1ncc(C(F)(F)F)cc1Cl (stereo unspecified)	-0.37
CCC1Oc2nc(SC)nnc2-c2ccccc2N1C(=O)c1ccccc1 (stereo unspecified)	0.563
CC1(C)Cc2c(cnn2-c2ccccc2)-c2c1c1ccccc1n2CC(O)CBr (stereo unspecified)	0.0106
O=C(Nc1ccc([N+](=O)[O-])cc1)c1cn(-c2ccccc2)nc1-c1cc2ccccc2o1	-0.161
COc1ccc(OCCn2cncn2)cc1	0.0157
O=C(c1cccc(C(F)(F)F)c1)N1CCCCCC1	-0.0358
C/C(=N/OC(=O)c1c(F)cccc1F)c1nccs1	-0.107
Cc1nn2c(CN(C(=O)COc3ccccc3)c3ccccc3)nnc2c2ccccc12	-0.835
Nc1[nH]c(N=NC(=O)c2ccc(Cl)cc2)c2ccccc12	-0.18
CCn1cc(C(=O)N2CCCC2)c(=O)c2cc(S(=O)(=O)N(C)C)ccc21	-0.0719
CCCCOc1ccc(CONS(=O)(=O)c2ccc(NC(C)=O)cc2)cc1Cl	-0.176
C=CCc1cc(/C=C2/NC(=S)NC2=O)cc(OC)c1O	0.128
Cc1ccc2nc(Cl)c(/C=N/NC(=O)[C@H]3C[C@@H]3c3ccccc3)cc2c1	-0.252
COc1cccc(-n2c(SCC(=O)NCc3ccco3)nnc2-c2c[nH]c3ccccc23)c1	-0.561
Cc1ccc(NC(=O)NNC(=O)Cn2nc(-c3ccccc3)c(-c3ccccc3)c(C#N)c2=O)cc1	-0.36
Cc1ccc(C(C)C)c(OCCn2c(=O)oc3ccccc32)c1	0.403
